Counter-ions that a name gives are not always drawn. Some of the results follow.
What follows are molecules tested on Schistosoma mansoni schistosomula (assay: phenotypic hit in primary schistosomula screen (any phenotype vs DMSO control) (binary (1 = hit, 0 = no phenotype)); higher = active (phenotype induced)). Settings: 1 µM; time (d): 7.

Phenotypic hit, active:
O=c1c(O)cccc2c([C@H]3Oc4cc(O)cc(O)c4C[C@H]3O)cc(O)c(O)c12 [theaflavanin] 1, COc1cccc2c(C)cc(=O)[nH]c12 [2-hydroxy-8-methoxylepidine] 1, CCC(C)(C)C(=O)O[C@H]1C[C@@H](C)C=C2C=C[C@H](C)[C@H](CC[C@@H]3C[C@@H](O)CC(=O)O3)[C@H]21 [simvastatin] 1, C[C@@H]1CC[C@@]23CCC4(C)[C@@](C=CC5[C@@]6(C)CC[C@H](O)C(C)(C)C6CC[C@]54C)(OC2=O)C3[C@H]1C (stereo not given in full) [dehydro (11,12)ursolic acid lactone] 1

Phenotypic hit, inactive:
OC(CCN1CCCCC1)(c1ccccc1)c1ccccc1 [pridinol methanesulfonate] 0, CCCCC(=O)N(Cc1ccc(-c2ccccc2-c2nnn[nH]2)cc1)[C@H](C(=O)O)C(C)C [valsartan] 0, O=C(O)c1cc(=O)c2ccccc2[nH]1 [Kynurenic acid] 0, CC(C)NNC(=O)c1ccncc1 [Iproniazid phosphate] 0, O=C1c2cccc(O)c2C(=O)c2c(O)cccc21 [dantron] 0, COc1ccc(-c2cc(=O)c3c(O)cc(O[C@H]4O[C@H](CO[C@@H]5O[C@@H](C)[C@H](O)[C@@H](O)[C@H]5O)[C@@H](O)[C@H](O)[C@H]4O)cc3o2)cc1 [buddleoflavonoloside] 0, COc1cc(C(=O)O)c(O)c2c1OCO2 [2-demethylapiolic acid] 0, CCOC(N)=O [urethane] 0, C[C@@H]1CC[C@@]2(OC1)O[C@H]1C[C@H]3[C@@H]4CC=C5C[C@@H](O)CC[C@]5(C)[C@H]4CC[C@]3(C)[C@H]1[C@@H]2C [diosgenin] 0, Nc1ccc(C(=O)O)c(O)c1 [sodium p-aminosalicylate] 0, Cc1cc(=O)c2c(O)cc(O)c(C)c2o1 [isoeugenitol] 0, O=C(O)c1ccccc1Nc1cccc(C(F)(F)F)c1 [flufenamic acid] 0, CSCCC(NC=O)C(=O)NC(C)C(=O)O (stereo not given) [n-formylmethionylalanine] 0, Clc1ccc(C(c2ccccc2Cl)C(Cl)Cl)cc1 (stereo not given) [mitotane] 0, O=C1O[C@H]([C@@H](O)CO)C(O)=C1O [ascorbic acid] 0, Nc1ccc(/N=N/c2ccccc2)c(N)n1 [phenazopyridine hydrochloride] 0, CN(C)CCOC(=O)C(c1ccccc1)C1(O)CCCC1 (stereo not given) [cyclopentolate hydrochloride] 0, CC1=CC(=O)C2=C(C)CC[C@@H]3[C@H](OC(=O)[C@H]3C)[C@@H]12 [leucodin] 0, O=C(/C=C/c1ccccc1)c1ccc(O)cc1 [4'-hydroxychalcone] 0, O=C(O)c1ccc2c(c1)OCO2 [piperonylic acid] 0, NCCCS(=O)(=O)O [3-aminopropanesulphonic acid] 0, CC(C)CCC[C@@H](C)[C@H]1CC[C@H]2[C@@H]3CC[C@@H]4C[C@H](O)CC[C@]4(C)[C@H]3CC[C@]12C [epicoprosterol] 0, Nc1nc(/C(=C/CC(=O)O)C(=O)N[C@@H]2C(=O)N3C(C(=O)O)=CCS[C@H]23)cs1 [ceftibuten] 0, CCC1(C)CC(=O)NC1=O (stereo not given) [ethosuximide] 0, CC(NCCc1ccc(O)cc1)C(O)c1ccc(O)cc1 (stereo not given) [ritodrine hydrochloride] 0, O=C1CC[C@]23/C=C/C(=O)NCCCCNCCCNC(=O)/C=C/c4ccc(c2c4)O[C@@H]3C1 [lunarine] 0, NNC(=O)c1ccncc1.Nc1ccc(C(=O)O)c(O)c1 [pasiniazid] 0, COc1cc(O)c(C(=O)/C=C/c2ccccc2)c(OC)c1 [flavokawain b] 0, CCCc1nn(C)c2c(=O)[nH]c(-c3cc(S(=O)(=O)N4CCN(C)CC4)ccc3OCC)nc12 [sildenafil] 0, C[C@@H]1CN(c2c(F)c(F)c3c(=O)c(C(=O)O)cn(C4CC4)c3c2F)C[C@H](C)N1 [orbifloxacin] 0, CC(=O)Oc1ccc(C(c2ccc(OC(C)=O)cc2)c2ccccn2)cc1 [bisacodyl] 0, CC1(C)CC2C1CC[C@]1(CBr)CCC3C(CC(=O)O)C(=O)O[C@@]32C1 (stereo not given in full) [bromo-3-hydroxy-4- (succin-2-yl)-caryolane gamma-lactone] 0, CC(=O)[C@@]1(O)CC[C@H]2[C@@H]3CCC4=CC(=O)CC[C@]4(C)[C@H]3CC[C@@]21C [hydroxyprogesterone] 0, Oc1ccc2c(c1)OC[C@H]1c3cc4c(cc3O[C@@H]21)OCO4 [maackiain] 0, C[C@H]1[C@H](C)CC[C@]2(C(=O)O)CC[C@]3(C)C(=CC[C@@H]4[C@@]5(C)CC[C@H](O)C(C)(C)[C@@H]5CC[C@]43C)[C@H]12 [ursolic acid] 0, Oc1cc2c(cc1O)C1c3ccc(O)c(O)c3OCC1(O)C2 (stereo not given) [haematoxylin] 0, NC1(C(=O)O)CC1 [aminocyclopropanecarboxylic acid] 0, CC(=O)O[C@@H]1C[C@H]2C(C)(C)C(=O)C=C[C@]2(C)[C@H]2CC[C@@]3(C)[C@H](c4ccoc4)OC(=O)[C@H]4O[C@]43[C@@]21C [gedunin] 0, CSCC[C@H](NC=O)C(=O)N[C@@H](Cc1ccccc1)C(=O)O [n-formylmethionylphenylalanine] 0, COc1cc2oc(=O)c3oc4c5c(ccc4c(=O)c3c2cc1OC)OC(C)(C)CC5 [beta-dihydrorotenone] 0, CN(C)CCOC(c1ccccc1)c1ccccc1.Cn1c(=O)c2[nH]c(Cl)nc2n(C)c1=O [dimenhydrinate] 0
